# Assay results reported in the supplement of paper PMC8728848.
# The other results are listed elsewhere or left out.
# Key:
# Experiment in all cases: glycan array binding signal (z-score within array); higher = stronger binding
# Conditions in all cases: glycan notation: IUPAC condensed, linker removed
# [1] = target: GalNAc(b1-4)GlcNAc
# Method in brief: (§1)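 Arrays were curated from the Consortium for Functional Glycomics database, 3228 in total, and kept only where the protein sequence was available. Binding is expressed as a within-array Z-score. This score was averaged across arrays of the same protein sequence at different concentrations or buffers and across linkers, and negative values can be read as non-binding.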
# [2] = target: GalNAc(b1-4)GlcNAc(b1-2)Man
# Method in brief: as §1
# [3] = target: GalNAc(b1-4)GlcNAc(b1-2)Man(a1-3)[GalNAc(b1-4)GlcNAc(b1-2)Man(a1-6)]Man(b1-4)GlcNAc(b1-4)GlcNAc
# Method in brief: as §1
# [4] = target: GalNAc(b1-4)GlcNAc(b1-3)GalNAc(b1-4)GlcNAc
# Method in brief: as §1
# [5] = target: GalNAc(b1-4)GlcNAc6S
# Method in brief: as §1
# [6] = target: GalNAc(b1-6)GalNAc
# Method in brief: as §1
# [7] = target: GalNAc3S(b1-4)GlcNAc
# Method in brief: as §1
# [8] = target: GalNAc3S(b1-4)GlcNAc3S
# Method in brief: as §1
# [9] = target: GalNAc3S(b1-4)[Fuc(a1-3)]GlcNAc
# Method in brief: as §1
# [10] = target: GalNAc4S6S(b1-4)GlcNAc
# Method in brief: as §1
# [11] = target: GalNAc6S(b1-4)GlcNAc
# Method in brief: as §1
# [12] = target: Glc(a1-4)Glc
# Method in brief: as §1
# [13] = target: Glc(a1-4)Glc(a1-4)Glc(a1-4)Glc
# Method in brief: as §1
# [14] = target: Glc(a1-6)Glc(a1-6)Glc
# Method in brief: as §1
# [15] = target: Glc(a1-6)Glc(a1-6)Glc(a1-6)Glc
# Method in brief: as §1
# [16] = target: Glc(b1-4)Glc
# Method in brief: as §1
# [17] = target: Glc(b1-6)Glc
# Method in brief: as §1
# [18] = target: GlcA(b1-3)Gal
# Method in brief: as §1
# [19] = target: GlcA(b1-3)GlcNAc
# Method in brief: as §1
# [20] = target: GlcA(b1-6)Gal
# Method in brief: as §1
# [21] = target: GlcA3S(b1-3)Gal(b1-4)GlcNAc(b1-2)Man
# Method in brief: as §1
# [22] = target: GlcA3S(b1-3)Gal(b1-4)GlcNAc(b1-3)Gal(b1-4)Glc
# Method in brief: as §1
# [23] = target: GlcNAc(a1-3)Gal(b1-4)GlcNAc
# Method in brief: as §1
# [24] = target: GlcNAc(a1-4)Gal(b1-3)GlcNAc
# Method in brief: as §1
# [25] = target: GlcNAc(a1-4)Gal(b1-4)GalNAc
# Method in brief: as §1
# [26] = target: GlcNAc(a1-4)Gal(b1-4)GlcNAc
# Method in brief: as §1
# [27] = target: GlcNAc(a1-4)Gal(b1-4)GlcNAc(b1-3)Gal(b1-4)Glc
# Method in brief: as §1
# [28] = target: GlcNAc(a1-4)Gal(b1-4)GlcNAc(b1-3)Gal(b1-4)GlcNAc
# Method in brief: as §1
# [29] = target: GlcNAc(a1-4)Gal(b1-4)GlcNAc(b1-3)Gal(b1-4)GlcNAc(b1-3)Gal(b1-4)GlcNAc
# Method in brief: as §1
# [30] = target: GlcNAc(a1-4)Gal(b1-4)GlcNAc(b1-3)Gal(b1-4)[Fuc(a1-3)]GlcNAc(b1-3)Gal(b1-4)[Fuc(a1-3)]GlcNAc
# Method in brief: as §1
# [31] = target: GlcNAc(a1-6)Gal(b1-4)GlcNAc
# Method in brief: as §1
# [32] = target: GlcNAc(b1-2)Gal(b1-3)GalNAc
# Method in brief: as §1
# [33] = target: GlcNAc(b1-2)Man(a1-3)[GlcNAc(b1-2)Man(a1-6)]Man(b1-4)GlcNAc(b1-4)GlcNAc
# Method in brief: as §1
# [34] = target: GlcNAc(b1-2)Man(a1-3)[GlcNAc(b1-2)Man(a1-6)]Man(b1-4)GlcNAc(b1-4)[Fuc(a1-6)]GlcNAc
# Method in brief: as §1
# [35] = target: GlcNAc(b1-2)Man(a1-3)[GlcNAc(b1-4)][GlcNAc(b1-2)Man(a1-6)]Man(b1-4)GlcNAc(b1-4)GlcNAc
# Method in brief: as §1
# [36] = target: GlcNAc(b1-2)Man(a1-3)[GlcNAc(b1-4)][GlcNAc(b1-2)Man(a1-6)]Man(b1-4)GlcNAc(b1-4)[Fuc(a1-6)]GlcNAc
# Method in brief: as §1
# [37] = target: GlcNAc(b1-2)[GlcNAc(b1-4)]Man(a1-3)[GlcNAc(b1-2)Man(a1-6)]Man(b1-4)GlcNAc(b1-4)GlcNAc
# Method in brief: as §1
# [38] = target: GlcNAc(b1-2)[GlcNAc(b1-4)]Man(a1-3)[GlcNAc(b1-4)][GlcNAc(b1-2)Man(a1-6)]Man(b1-4)GlcNAc(b1-4)GlcNAc
# Method in brief: as §1
# [39] = target: GlcNAc(b1-2)[GlcNAc(b1-4)]Man(a1-3)[GlcNAc(b1-4)][GlcNAc(b1-2)[GlcNAc(b1-6)]Man(a1-6)]Man(b1-4)GlcNAc(b1-4)GlcNAc
# Method in brief: as §1
# [40] = target: GlcNAc(b1-2)[GlcNAc(b1-4)]Man(a1-3)[GlcNAc(b1-4)][GlcNAc(b1-2)[GlcNAc(b1-6)]Man(a1-6)]Man(b1-4)GlcNAc(b1-4)[Fuc(a1-6)]GlcNAc
# Method in brief: as §1
# [41] = target: GlcNAc(b1-2)[GlcNAc(b1-6)]Man(a1-6)[GlcNAc(b1-2)Man(a1-3)]Man(b1-4)GlcNAc(b1-4)GlcNAc
# Method in brief: as §1
# [42] = target: GlcNAc(b1-2)[GlcNAc(b1-6)]Man(a1-6)[GlcNAc(b1-2)Man(a1-3)]Man(b1-4)GlcNAc(b1-4)[Fuc(a1-6)]GlcNAc
# Method in brief: as §1
# [43] = target: GlcNAc(b1-2)[GlcNAc(b1-6)]Man(a1-6)[GlcNAc(b1-4)][GlcNAc(b1-2)Man(a1-3)]Man(b1-4)GlcNAc(b1-4)GlcNAc
# Method in brief: as §1
# [44] = target: GlcNAc(b1-3)Fuc
# Method in brief: as §1
# [45] = target: GlcNAc(b1-3)Gal
# Method in brief: as §1
binder,measurement,setting,value
CpGal16 (Clavelina picta) (protein) MAKMITNYVGKRIECIMVATDMMSTVFSLASATGDLPFYINFRQRENSIVMNTRVHGKWQYEKSQSSGGMNFYEPFRLVVEVRPSVFKVTVSTMGEEDGITFNLQYSQITIKPDEIVAMHLGYCNLRSELLVTDL,glycan array binding signal (z-score),[1],0.046
same,glycan array binding signal (z-score),[2],-0.411
same,glycan array binding signal (z-score),[3],-0.19
same,glycan array binding signal (z-score),[4],-0.299
same,glycan array binding signal (z-score),[5],-0.296
same,glycan array binding signal (z-score),[6],-0.458
same,glycan array binding signal (z-score),[7],0.072
same,glycan array binding signal (z-score),[8],0.397
same,glycan array binding signal (z-score),[9],0.353
same,glycan array binding signal (z-score),[10],-0.331
same,glycan array binding signal (z-score),[11],-0.272
same,glycan array binding signal (z-score),[12],-0.332
same,glycan array binding signal (z-score),[13],-0.354
same,glycan array binding signal (z-score),[14],-0.402
same,glycan array binding signal (z-score),[15],-0.276
same,glycan array binding signal (z-score),[16],-0.41
same,glycan array binding signal (z-score),[17],-0.49
same,glycan array binding signal (z-score),[18],-0.261
same,glycan array binding signal (z-score),[19],-0.4
same,glycan array binding signal (z-score),[20],-0.293
same,glycan array binding signal (z-score),[21],-0.41
same,glycan array binding signal (z-score),[22],-0.213
same,glycan array binding signal (z-score),[23],-0.249
same,glycan array binding signal (z-score),[24],-0.389
same,glycan array binding signal (z-score),[25],-0.312
same,glycan array binding signal (z-score),[26],-0.404
same,glycan array binding signal (z-score),[27],-0.434
same,glycan array binding signal (z-score),[28],-0.32
same,glycan array binding signal (z-score),[29],-0.443
same,glycan array binding signal (z-score),[30],-0.21
same,glycan array binding signal (z-score),[31],-0.409
same,glycan array binding signal (z-score),[32],-0.363
same,glycan array binding signal (z-score),[33],-0.418
same,glycan array binding signal (z-score),[34],-0.14
same,glycan array binding signal (z-score),[35],-0.442
same,glycan array binding signal (z-score),[36],-0.445
same,glycan array binding signal (z-score),[37],-0.097
same,glycan array binding signal (z-score),[38],-0.264
same,glycan array binding signal (z-score),[39],-0.389
same,glycan array binding signal (z-score),[40],-0.446
same,glycan array binding signal (z-score),[41],-0.344
same,glycan array binding signal (z-score),[42],-0.177
same,glycan array binding signal (z-score),[43],-0.498
same,glycan array binding signal (z-score),[44],-0.418
same,glycan array binding signal (z-score),[45],-0.323
